The supplement of paper PMC4604168 (melanoma cell lines)
Some of the results follow. Single values are uncertain, as repeats are few or missing.

Experiments:
Assay in all cases: cell count relative to DMSO control; melanoma cells; higher = more viable cells
Conditions in all cases: library dose: standard library concentration; 72 h
SkMel28 = test system: SkMel28
SkMel2 = test system: SkMel2
SkMel30 = test system: SkMel30
SkMel5 = test system: SkMel5
UACC257 = test system: UACC257
UACC62 = test system: UACC62
WM115 = test system: WM115
WM1716 = test system: WM1716
WM1745 = test system: WM1745
WM3526 = test system: WM3526
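Note: cells treated in 1,536-well plates, then fixed and DAPI-stained, with nuclei counted from automated high-throughput microscope images.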

| Structure (SMILES) | cell count (SkMel28) [%] | cell count (SkMel2) [%] | cell count (SkMel30) [%] | cell count (SkMel5) [%] | cell count (UACC257) [%] | cell count (UACC62) [%] | cell count (WM115) [%] | cell count (WM1716) [%] | cell count (WM1745) [%] | cell count (WM3526) [%] |
| --- | --- | --- | --- | --- | --- | --- | --- | --- | --- | --- |
| COc1ccc(C2=N[C@@H](c3ccc(Cl)cc3)[C@@H](c3ccc(Cl)cc3)N2C(=O)N2CCNC(=O)C2)c(OC(C)C)c1 [Nutlin-3] + C=CCNC1=C2C[C@@H](C)C[C@H](OC)[C@H](O)[C@@H](C)/C=C(\C)[C@H](OC(N)=O)[C@@H](OC)/C=C\C=C(/C)C(=O)NC(=CC1=O)C2=O [Tanespimycin] (first compound 0.5 µM, partner dose 0.01 µM) | 43.9 | 89 | 84.6 | 56.4 | 70 | 52 | 35.1 | 71.7 | 52.4 | 71.7 |
| Cc1cc(Nc2cc(N3CCN(C)CC3)nc(/C=C/c3ccccc3)n2)n[nH]1 + Cc1ccc(NC(=O)c2cccc(N(C)C)c2)cc1NC(=O)c1ccc(O)cc1 [ZM336372] (first compound 0.2 µM, partner dose 10 µM) | 68.8 | 65.7 | 94.3 | 58.4 | 87 | 69.8 | 60 | 88.2 | 76.3 | 69.9 |
| COc1ccc(C2=N[C@@H](c3ccc(Cl)cc3)[C@@H](c3ccc(Cl)cc3)N2C(=O)N2CCNC(=O)C2)c(OC(C)C)c1 [Nutlin-3] + CS(=O)(=O)c1ccc(C(=O)Nc2ccc(Cl)c(-c3ccccn3)c2)c(Cl)c1 [vismodegib] (first compound 0.5 µM, partner dose 5 µM) | 62.7 | 97.2 | 98.6 | 68.8 | 74.4 | 59.8 | 85.3 | 89.4 | 89.7 | 107 |
| COc1ccc(C2=N[C@@H](c3ccc(Cl)cc3)[C@@H](c3ccc(Cl)cc3)N2C(=O)N2CCNC(=O)C2)c(OC(C)C)c1 [Nutlin-3] + C=C(c1ccc(C(=O)O)cc1)c1cc2c(cc1C)C(C)(C)CCC2(C)C [Bexarotene] (first compound 0.5 µM, partner dose 10 µM) | 65.5 | 84.2 | 91.4 | 66.1 | 78.8 | 50.8 | 74.1 | 55.7 | 69.6 | 77 |
| COc1ccc(C2=N[C@@H](c3ccc(Cl)cc3)[C@@H](c3ccc(Cl)cc3)N2C(=O)N2CCNC(=O)C2)c(OC(C)C)c1 [Nutlin-3] + CO[C@@H]1[C@H](N(C)C(=O)c2ccccc2)C[C@H]2O[C@]1(C)n1c3ccccc3c3c4c(c5c6ccccc6n2c5c31)C(=O)NC4 [Midostaurin] (first compound 0.5 µM, partner dose 0.4 µM) | 45.1 | 56.1 | 71.7 | 50.7 | 62.7 | 53.6 | 44.6 | 40.4 | 30.7 | 68.8 |
| Cc1cn(-c2cc(NC(=O)c3ccc(C)c(Nc4nccc(-c5cccnc5)n4)c3)cc(C(F)(F)F)c2)cn1 [nilotinib] + CS(=O)(=O)CCNCc1ccc(-c2ccc3ncnc(Nc4ccc(OCc5cccc(F)c5)c(Cl)c4)c3c2)o1 [lapatinib] (first compound 1 µM, partner dose 4 µM) | 64.8 | 91.5 | 57 | 51.1 | 87.6 | 21.4 | 80.7 | 74.2 | 68.5 | 71.9 |
| Cc1cn(-c2cc(NC(=O)c3ccc(C)c(Nc4nccc(-c5cccnc5)n4)c3)cc(C(F)(F)F)c2)cn1 [nilotinib] + Cn1nnc2c(C(N)=O)ncn2c1=O [temozolomide] (first compound 1 µM, partner dose 10 µM) | 43 | 89.8 | 62.8 | 70.5 | 103 | 66.3 | 73.6 | 61.7 | 68.8 | 86.1 |
| COc1ccc(C2=N[C@@H](c3ccc(Cl)cc3)[C@@H](c3ccc(Cl)cc3)N2C(=O)N2CCNC(=O)C2)c(OC(C)C)c1 [Nutlin-3] + NCC(=O)Nc1ccc(-n2nc(C(F)(F)F)cc2-c2ccc3c(ccc4ccccc43)c2)cc1 [OSU03012] (first compound 0.5 µM, partner dose 5 µM) | 20.7 | 33.3 | 53.5 | 55.9 | 71.8 | 59.3 | 68.7 | 72.4 | 57.3 | 47.6 |
| Cc1cn(-c2cc(NC(=O)c3ccc(C)c(Nc4nccc(-c5cccnc5)n4)c3)cc(C(F)(F)F)c2)cn1 [nilotinib] + C=C(c1ccc(C(=O)O)cc1)c1cc2c(cc1C)C(C)(C)CCC2(C)C [Bexarotene] (first compound 1 µM, partner dose 10 µM) | 107 | 87.9 | 126 | 67.6 | 107 | 74.9 | 87.1 | 96.7 | 69.6 | 73.4 |
| Cn1c(=O)n(-c2ccc(C(C)(C)C#N)cc2)c2c3cc(-c4cnc5ccccc5c4)ccc3ncc21 + COc1cc2c(Oc3ccc4[nH]c(C)cc4c3F)ncnc2cc1OCCCN1CCCC1 [cediranib] (first compound 0.02 µM, partner dose 2 µM) | 46.4 | 45.6 | 66 | 68.4 | 95.9 | 73.1 | 60.9 | 71.2 | 80.7 | 70.7 |
| Cc1cn(-c2cc(NC(=O)c3ccc(C)c(Nc4nccc(-c5cccnc5)n4)c3)cc(C(F)(F)F)c2)cn1 [nilotinib] + C[C@]1(c2nc3c(C(N)=O)cccc3[nH]2)CCCN1 [Veliparib] (first compound 1 µM, partner dose 7 µM) | 53.7 | 71.7 | 70.4 | 78.3 | 101 | 58.2 | 74.4 | 98.9 | 96.8 | 65.2 |
| CC(C)C[C@H](NC(=O)[C@H](Cc1ccccc1)NC(=O)c1cnccn1)B(O)O [Bortezomib] + CC1(C)NC(=O)N(c2ccc([N+](=O)[O-])c(C(F)(F)F)c2)C1=O [nilutamide] (first compound 0.005 µM, partner dose 5 µM) | 32.3 | 34 | 29.9 | 26.1 | 82.4 | 71.3 | 22.7 | 16.2 | 17.9 | 26.2 |
| CC(C)C[C@H](NC(=O)[C@H](Cc1ccccc1)NC(=O)c1cnccn1)B(O)O [Bortezomib] + C#Cc1cccc(Nc2ncnc3cc(OCCOC)c(OCCOC)cc23)c1 [erlotinib] (first compound 0.005 µM, partner dose 4 µM) | 37.2 | 39.2 | 35.8 | 31.9 | 79.8 | 44.4 | 30.3 | 16.4 | 15.2 | 30.9 |
| Cn1c(=O)n(-c2ccc(C(C)(C)C#N)cc2)c2c3cc(-c4cnc5ccccc5c4)ccc3ncc21 + CO[C@@H]1[C@H](N(C)C(=O)c2ccccc2)C[C@H]2O[C@]1(C)n1c3ccccc3c3c4c(c5c6ccccc6n2c5c31)C(=O)NC4 [Midostaurin] (first compound 0.02 µM, partner dose 0.4 µM) | 38.6 | 49.8 | 83.6 | 54.2 | 67.1 | 70 | 52.8 | 49 | 37.7 | 61.6 |
| Cn1c(=O)n(-c2ccc(C(C)(C)C#N)cc2)c2c3cc(-c4cnc5ccccc5c4)ccc3ncc21 + Nc1cccc2c1CN(C1CCC(=O)NC1=O)C2=O [lenalidomide] (first compound 0.02 µM, partner dose 5 µM) | 50.8 | 66 | 83 | 66.5 | 104 | 73.4 | 66.4 | 66.1 | 98.4 | 73.6 |
| Cc1cn(-c2cc(NC(=O)c3ccc(C)c(Nc4nccc(-c5cccnc5)n4)c3)cc(C(F)(F)F)c2)cn1 [nilotinib] + CN(c1ncccc1CNc1nc(Nc2ccc3c(c2)CC(=O)N3)ncc1C(F)(F)F)S(C)(=O)=O [PF562271] (first compound 1 µM, partner dose 0.4 µM) | 77.3 | 74.8 | 90.9 | 53.5 | 94.6 | 47.8 | 71.2 | 93.2 | 63.9 | 106 |
| CC(C)C[C@H](NC(=O)[C@H](Cc1ccccc1)NC(=O)c1cnccn1)B(O)O [Bortezomib] + O=C(CCCCCCC(=O)Nc1ccccc1)NO [vorinostat] (first compound 0.005 µM, partner dose 0.4 µM) | 25.6 | 32.5 | 27.8 | 34.6 | 64.3 | 73 | 24.2 | 19.7 | 8.16 | 18 |
| Cn1c(=O)n(-c2ccc(C(C)(C)C#N)cc2)c2c3cc(-c4cnc5ccccc5c4)ccc3ncc21 + O=C(Nc1cccc(Cl)c1)Nc1ncc(CCNc2ncnc3ccsc23)s1 [SNS314] (first compound 0.02 µM, partner dose 0.004 µM) | 41.4 | 47.2 | 75.7 | 87.5 | 88.2 | 80.8 | 48.6 | 64.5 | 93.4 | 74.9 |
| Cc1cc(Nc2cc(N3CCN(C)CC3)nc(/C=C/c3ccccc3)n2)n[nH]1 + Nc1nc(F)nc2c1ncn2[C@@H]1O[C@H](CO)[C@@H](O)[C@@H]1O [fludarabine] (first compound 0.2 µM, partner dose 1 µM) | 1.63 | 0.858 | 15.8 | 21.4 | 33.7 | 56.9 | 71.5 | 90.2 | 60.2 | 21.6 |
| Cc1cc(Nc2cc(N3CCN(C)CC3)nc(/C=C/c3ccccc3)n2)n[nH]1 + C=CCn1c(=O)c2cnc(Nc3ccc(N4CCN(C)CC4)cc3)nc2n1-c1cccc(C(C)(C)O)n1 [MK1775] (first compound 0.2 µM, partner dose 0.1 µM) | 47.1 | 64.6 | 86.1 | 53 | 93.3 | 44.4 | 44.1 | 70.4 | 33.7 | 69.2 |
| Cc1cn(-c2cc(NC(=O)c3ccc(C)c(Nc4nccc(-c5cccnc5)n4)c3)cc(C(F)(F)F)c2)cn1 [nilotinib] + OCCn1cc(-c2cnc3nnn(Cc4ccc5ncccc5c4)c3n2)cn1 [PF04217903] (first compound 1 µM, partner dose 5 µM) | 97.3 | 90.5 | 89.6 | 78.6 | 111 | 89.5 | 74.3 | 87.5 | 119 | 88.1 |
